Values marked as one replicate rest on one cluster of the flow cell; about a third of the high ones do not repeat.
The sequences below were run on ATP (assay: switch fluorescence ratio, 500 uM ATP over buffer (Cy3 cluster intensity, sum of 5 cycles each) (fold (ratio)); higher = stronger signal-on switching upon ATP binding; sequences stand for … in TCGTCGGCAGCGTCAGATGTGTATAAGAGACAGTTTTTTTTTTTTTTTTTTTTTTTTT…TC). Settings: aptamer strand: ATP DNA aptamer (quencher-CACCTGGGGGAGTATTGCGGAGGAAGG + anchor), 100 nM annealed; ATP concentration: 500 uM; one replicate.
Method in brief: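 Clusters with intensities outside 100-1000 RFU were excluded. The remaining Cy3-labelled switching-strand clusters on a modified Illumina MiSeq flow-cell had been annealed to 100 nM quencher-labelled ATP aptamer and imaged in selection buffer, then after 15 min with 500 uM ATP at 22 °C, for five cycles separated by NaOH stripping and re-annealing. The fluorescence ratio, averaged per switch-domain sequence, is each cluster's summed target-cycle Cy3 intensity over its summed buffer-cycle Cy3 intensity.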
TATTACCTAC gave a switch fluorescence ratio of 1.31. For TATTAGAGGC, the switch fluorescence ratio was 1.01. Sequence TATTATGATG has a switch fluorescence ratio of 1.02. For TATTATGGTA, the switch fluorescence ratio was 1.04. Sequence TATTATTGAA has a switch fluorescence ratio of 0.997. Work on TATTCATCCC yielded a switch fluorescence ratio of 0.977. TATTCATGAT was tested, and the switch fluorescence ratio was 0.957. Sequence TATTCCTTC has a switch fluorescence ratio of 1.06. In the case of TATTCGTCGA, the switch fluorescence ratio is reported as 0.989. For TATTCTGGGG, the switch fluorescence ratio was 0.988. Sequence TATTCTTGAA has a switch fluorescence ratio of 0.939. Sequence TATTGAACTC has a switch fluorescence ratio of 1.05. In the case of TATTGACCTT, the switch fluorescence ratio is reported as 1.03. Sequence TATTGAGGCT has a switch fluorescence ratio of 1. Work on TATTGATCAT yielded a switch fluorescence ratio of 1. TATTGATGGC showed a switch fluorescence ratio of 0.98. TATTGCGTT showed a switch fluorescence ratio of 0.966. In the case of TATTGGAA, the switch fluorescence ratio is reported as 0.994. For TATTGGATAT, the switch fluorescence ratio was 0.984. For TATTGGCATC, the switch fluorescence ratio was 0.952. TATTGGCGTA gave a switch fluorescence ratio of 0.966. TATTGGTTGA was tested, and the switch fluorescence ratio was 0.977. TATTTAAAGA was tested, and the switch fluorescence ratio was 1.02. Sequence TATTTAGTGT has a switch fluorescence ratio of 1.09. Work on TATTTCAGAT yielded a switch fluorescence ratio of 0.992. For TATTTCCCTA, the switch fluorescence ratio was 0.988. In the case of TATTTCGCCA, the switch fluorescence ratio is reported as 2.9. TATTTGCCGG showed a switch fluorescence ratio of 1.03. For TATTTGGAAG, the switch fluorescence ratio was 1.06. Work on TATTTGGCCC yielded a switch fluorescence ratio of 0.914. TATTTGGTG gave a switch fluorescence ratio of 0.99. In the case of TATTTGTACA, the switch fluorescence ratio is reported as 1.05. TATTTTTGTA showed a switch fluorescence ratio of 1.03. TCAAAAAGCA gave a switch fluorescence ratio of 1. TCAAAACGCA gave a switch fluorescence ratio of 1.11. With TCAAAAGCAG the switch fluorescence ratio was 1.62. Work on TCAAACATGT yielded a switch fluorescence ratio of 0.984. Sequence TCAAAGATCT has a switch fluorescence ratio of 0.982. With TCAAAGCCAG the switch fluorescence ratio was 0.972. With TCAAATCGCT the switch fluorescence ratio was 1.01. TCAACAAGG was tested, and the switch fluorescence ratio was 1.43. With TCAACACGAG the switch fluorescence ratio was 1.07. In the case of TCAACATTTA, the switch fluorescence ratio is reported as 0.968. TCAACGACCG gave a switch fluorescence ratio of 1.07. For TCAACTTACA, the switch fluorescence ratio was 1.21. In the case of TCAAGAAGC, the switch fluorescence ratio is reported as 1.32. TCAAGACGAT gave a switch fluorescence ratio of 1. Work on TCAAGCGTTA yielded a switch fluorescence ratio of 1.01. For TCAAGCTGC, the switch fluorescence ratio was 1.12. With TCAAGGACGT the switch fluorescence ratio was 1.06. TCAAGGAGTA showed a switch fluorescence ratio of 0.942. With TCAAGGGTAA the switch fluorescence ratio was 1.04. With TCAAGGTTAG the switch fluorescence ratio was 0.972. TCAAGGTTGG gave a switch fluorescence ratio of 1.01. TCAAGTAAAT was tested, and the switch fluorescence ratio was 1.19. With TCAAGTGTCT the switch fluorescence ratio was 0.948. TCAATAAGGA showed a switch fluorescence ratio of 1. With TCAATATACA the switch fluorescence ratio was 1.06. In the case of TCAATATAG, the switch fluorescence ratio is reported as 0.992. For TCAATGAGGT, the switch fluorescence ratio was 0.996. For TCAATGCGGA, the switch fluorescence ratio was 0.998. Sequence TCAATGTTC has a switch fluorescence ratio of 0.954. TCAATTCGGG was tested, and the switch fluorescence ratio was 1.01. For TCAATTTTGG, the switch fluorescence ratio was 0.964. Work on TCACAGAGCG yielded a switch fluorescence ratio of 0.996. Work on TCACATAGGC yielded a switch fluorescence ratio of 0.965. With TCACATTAGT the switch fluorescence ratio was 1.01. For TCACCAAAAC, the switch fluorescence ratio was 1.17. Sequence TCACCATTA has a switch fluorescence ratio of 1.01. Sequence TCACCGGCGT has a switch fluorescence ratio of 1.01. TCACGATGTA gave a switch fluorescence ratio of 1.03. TCACGGAAAT showed a switch fluorescence ratio of 1. TCACGGATAG gave a switch fluorescence ratio of 1.03. TCACGGATT was tested, and the switch fluorescence ratio was 0.993. In the case of TCACGGGTGT, the switch fluorescence ratio is reported as 1.46. In the case of TCACGGTACG, the switch fluorescence ratio is reported as 1.02. TCACGGTGGG was tested, and the switch fluorescence ratio was 0.996. TCACGTACAG showed a switch fluorescence ratio of 1.63. With TCACGTATTG the switch fluorescence ratio was 1.09. For TCACGTGGGC, the switch fluorescence ratio was 0.974. With TCACGTGTGG the switch fluorescence ratio was 1.02. In the case of TCACTATGGA, the switch fluorescence ratio is reported as 1.04. TCACTTATCT showed a switch fluorescence ratio of 1. With TCACTTGATT the switch fluorescence ratio was 0.98. Sequence TCACTTTCAA has a switch fluorescence ratio of 1.05. TCAGAAAGGT showed a switch fluorescence ratio of 0.987. With TCAGAACAAC the switch fluorescence ratio was 1.11. Work on TCAGAATTTG yielded a switch fluorescence ratio of 0.938. For TCAGAGCCCA, the switch fluorescence ratio was 1.38. TCAGCAACCC was tested, and the switch fluorescence ratio was 2.23. TCAGCCATGC was tested, and the switch fluorescence ratio was 1.31. With TCAGCGGGTC the switch fluorescence ratio was 0.961. Work on TCAGGAACT yielded a switch fluorescence ratio of 1.05. In the case of TCAGGCAGGA, the switch fluorescence ratio is reported as 1.04. Sequence TCAGGGCTAT has a switch fluorescence ratio of 1.14. TCAGGGTAAC gave a switch fluorescence ratio of 0.981. Sequence TCAGGGTTCC has a switch fluorescence ratio of 1.01. Work on TCAGGTAGGA yielded a switch fluorescence ratio of 0.994. TCAGGTGCTG was tested, and the switch fluorescence ratio was 1.09. Work on TCAGGTTGTA yielded a switch fluorescence ratio of 0.994. Sequence TCAGTAATCA has a switch fluorescence ratio of 1.02. In the case of TCAGTATTAG, the switch fluorescence ratio is reported as 1. With TCAGTCGGGT the switch fluorescence ratio was 0.994. In the case of TCAGTCGTG, the switch fluorescence ratio is reported as 0.974. For TCAGTCTAGA, the switch fluorescence ratio was 1.01. With TCAGTCTAGC the switch fluorescence ratio was 1.01. Sequence TCAGTGCGTT has a switch fluorescence ratio of 0.978. TCAGTGTGAA showed a switch fluorescence ratio of 0.99. TCAGTGTTAA gave a switch fluorescence ratio of 1.01. In the case of TCAGTTGGTA, the switch fluorescence ratio is reported as 0.97. For TCAGTTGGTG, the switch fluorescence ratio was 0.988. Work on TCATACAGCG yielded a switch fluorescence ratio of 0.966. Sequence TCATACAGGG has a switch fluorescence ratio of 1.02. For TCATACCCCT, the switch fluorescence ratio was 1.13. Work on TCATACCTGG yielded a switch fluorescence ratio of 0.983. TCATACTAAG gave a switch fluorescence ratio of 1.06. With TCATAGTCTG the switch fluorescence ratio was 1.06. TCATCAGACT showed a switch fluorescence ratio of 0.995. TCATCCAAAT gave a switch fluorescence ratio of 1.26. Sequence TCATCCCAG has a switch fluorescence ratio of 1.14. TCATCCTTTG gave a switch fluorescence ratio of 0.99. Sequence TCATCGGCCG has a switch fluorescence ratio of 0.989. With TCATGAGGTT the switch fluorescence ratio was 1.01. Sequence TCATGCGAAT has a switch fluorescence ratio of 1.04. With TCATGCTTCT the switch fluorescence ratio was 1.01. For TCATGTGCG, the switch fluorescence ratio was 0.976. In the case of TCATGTTGGT, the switch fluorescence ratio is reported as 1.04. TCATTATCGG was tested, and the switch fluorescence ratio was 0.986. For TCATTCCAAT, the switch fluorescence ratio was 1.02. With TCATTGCCAT the switch fluorescence ratio was 0.982. TCATTGTACT was tested, and the switch fluorescence ratio was 1.04. TCATTTACGG gave a switch fluorescence ratio of 0.981. TCATTTGTAC gave a switch fluorescence ratio of 1.08. Sequence TCCAAATTGC has a switch fluorescence ratio of 1.01. TCCAACGTCC was tested, and the switch fluorescence ratio was 1.17. TCCAAGCGAT showed a switch fluorescence ratio of 1.26. TCCACATACG gave a switch fluorescence ratio of 2.91. TCCACGAGGG gave a switch fluorescence ratio of 1.09. With TCCACGATCC the switch fluorescence ratio was 1.28. Sequence TCCACGGCGC has a switch fluorescence ratio of 1.12. Work on TCCACTCTCC yielded a switch fluorescence ratio of 1.2. Work on TCCACTTGAG yielded a switch fluorescence ratio of 0.971. In the case of TCCAGAATCT, the switch fluorescence ratio is reported as 1.01. TCCAGACGGG was tested, and the switch fluorescence ratio was 1.01. In the case of TCCAGGACG, the switch fluorescence ratio is reported as 0.985. TCCAGGACGG showed a switch fluorescence ratio of 1.03. Sequence TCCAGGCAAA has a switch fluorescence ratio of 1.26. TCCAGGGG showed a switch fluorescence ratio of 2.4. Sequence TCCAGGTAAA has a switch fluorescence ratio of 1.06. With TCCATAAATC the switch fluorescence ratio was 0.982. Sequence TCCATAACAA has a switch fluorescence ratio of 1.17. TCCATAAGAC showed a switch fluorescence ratio of 1.55. TCCATACTTT gave a switch fluorescence ratio of 0.988. TCCATAGGAT was tested, and the switch fluorescence ratio was 1. For TCCATATATT, the switch fluorescence ratio was 0.992. TCCATCTAAG gave a switch fluorescence ratio of 0.999. With TCCATCTAAT the switch fluorescence ratio was 0.993. Work on TCCATGCCCT yielded a switch fluorescence ratio of 1.04. TCCATTTCTG gave a switch fluorescence ratio of 0.995. TCCCACAGAT gave a switch fluorescence ratio of 1.06. TCCCAGACTG gave a switch fluorescence ratio of 1.04. For TCCCATATTT, the switch fluorescence ratio was 0.983. With TCCCCCAGGT the switch fluorescence ratio was 1.1. Work on TCCCCGGGAA yielded a switch fluorescence ratio of 0.996. With TCCCCGGTCC the switch fluorescence ratio was 1.38. Sequence TCCCCTACAC has a switch fluorescence ratio of 1.1. In the case of TCCCGAAATA, the switch fluorescence ratio is reported as 2.41. In the case of TCCCTATATT, the switch fluorescence ratio is reported as 1.36. With TCCCTCATAT the switch fluorescence ratio was 1.02. TCCCTCCCTA showed a switch fluorescence ratio of 1.8. TCCCTTGAAG showed a switch fluorescence ratio of 0.977. With TCCCTTTCGT the switch fluorescence ratio was 0.996. TCCCTTTTGT showed a switch fluorescence ratio of 1.03. Sequence TCCGAAATC has a switch fluorescence ratio of 1.45. TCCGACAGAT was tested, and the switch fluorescence ratio was 2.49. With TCCGACCGCT the switch fluorescence ratio was 1.01. In the case of TCCGAGAGGG, the switch fluorescence ratio is reported as 1.02. TCCGATAACG gave a switch fluorescence ratio of 1.08. Work on TCCGATCTCG yielded a switch fluorescence ratio of 1.08. TCCGGAAGCG showed a switch fluorescence ratio of 1.59. Work on TCCGGATACC yielded a switch fluorescence ratio of 1.7. TCCGGGACTT showed a switch fluorescence ratio of 1.02. TCCGGGATTG gave a switch fluorescence ratio of 1.02. In the case of TCCGGGCGCG, the switch fluorescence ratio is reported as 1.01. In the case of TCCGGGGCCC, the switch fluorescence ratio is reported as 2.47. TCCGGGTCGC showed a switch fluorescence ratio of 1.04. In the case of TCCGGGTTTC, the switch fluorescence ratio is reported as 2.12. In the case of TCCGGTCTTT, the switch fluorescence ratio is reported as 0.984. TCCGGTGGGC gave a switch fluorescence ratio of 0.957. TCCGTAA gave a switch fluorescence ratio of 1.03. Sequence TCCGTCACA has a switch fluorescence ratio of 1.29. With TCCGTCCATC the switch fluorescence ratio was 1.4. TCCGTTATT gave a switch fluorescence ratio of 5.11. Sequence TCCGTTCTTT has a switch fluorescence ratio of 1.05. In the case of TCCTAACGGT, the switch fluorescence ratio is reported as 1.03. TCCTAACGTA showed a switch fluorescence ratio of 1.18. TCCTACTAGC was tested, and the switch fluorescence ratio was 1.38. For TCCTAGATAT, the switch fluorescence ratio was 1.02. Sequence TCCTATGTTC has a switch fluorescence ratio of 1.08. With TCCTATTAGT the switch fluorescence ratio was 1.02. For TCCTATTTAT, the switch fluorescence ratio was 1.

— the supplement of paper PMC10126150
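Also: ATP exposure 15 min at 22 °C before imaging.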
